Experimental data published in the supplement of paper PMC3334620.
Whole data set: some 33,000 sequences, median “E-score (-0.5 to 0.5)” near -0.04, cut for the highest 2% near 0.36. The list shows a part of the results.

Target: T1, Hmlalpha2 (UniProt P0CY09)
T1 sequence: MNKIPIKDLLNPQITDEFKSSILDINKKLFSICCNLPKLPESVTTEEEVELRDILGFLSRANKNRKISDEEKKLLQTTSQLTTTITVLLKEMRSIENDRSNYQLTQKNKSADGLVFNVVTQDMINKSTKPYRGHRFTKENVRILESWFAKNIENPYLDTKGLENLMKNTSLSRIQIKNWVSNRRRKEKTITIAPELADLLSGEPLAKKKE
Experiment: PBM E-score (8-mer binding enrichment) (E-score (-0.5 to 0.5)); higher = stronger / more preferred TF binding; most listed sequences are background and not binding sites
Settings: protein concentration: 200 nM; construct: GST-full length
Procedure: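 Universal 'all 10-mer' protein binding microarrays (Agilent AMADID 015681) probed with GST-tagged S. cerevisiae TFs (full-length or DBD) made by in vitro transcription/translation (PURExpress), about 100-200 nM. Bound TF was detected with fluorescent anti-GST. Each ungapped 8-mer (which stands for itself and its reverse complement) is scored by the PBM enrichment score (E-score), a modified Wilcoxon-Mann-Whitney statistic from -0.5 to +0.5, computed with the Universal PBM Analysis Suite. Scale: above 0.35 generally sequence-specific binding.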

| Sequence | PBM E-score |
| --- | --- |
| CTGCTGGA | -0.187 |
| CCATGACA | 0.0453 |
| ATAAACTC | 0.105 |
| ACCTATTA | 0.0842 |
| ACAAGCCA | 0.194 |
| CAGTATCG | -0.0673 |
| CCGCACAG | -0.125 |
| ATTCATAA | 0.134 |
| CGGCAAGC | -0.0983 |
| CCCTGGCG | -0.292 |
| AGGCAATG | -0.0945 |
| CTCGTGCC | -0.26 |
| CTATATCC | -0.106 |
| GACCTTAA | -0.155 |
| AGGGTGAC | -0.182 |
| ATATCCTC | -0.175 |
| AGAGTACT | -0.00088 |
| CGACATTC | 0.0104 |
| AGGGTGAG | -0.267 |
| CAACTTGG | -0.0128 |
| AACTGAAT | -0.0403 |
| GCCTCCCC | -0.267 |
| CTCGTCGA | 0.0413 |
| GAGGTACA | 0.235 |
| GCAGACGC | -0.14 |

| Sequence | PBM E-score |
| --- | --- |
| AAGGGGTC | -0.0494 |
| GTAATCAA | 0.318 |
| CTATTCGC | -0.117 |
| AACTATCT | -0.124 |
| CCCCCTGC | -0.346 |
| AGTCCTGC | -0.0389 |
| CTGAGCAC | -0.093 |
| AGTTTAGA | -0.0687 |
| AAACACGT | 0.361 |
| ACAGATCC | 0.0671 |
| ACAAGTCG | -0.0657 |
| CCTATAAG | -0.26 |
| AGGTGGAA | 0.0522 |
| AATCAATT | 0.181 |
| AGCTAGCG | -0.197 |
| ATACGTCC | 0.0703 |
| AGGCACTA | -0.128 |
| AGGATACC | -0.137 |
| ACCGAAGA | 0.0453 |
| CAAGCAAC | -0.0333 |
| CTCGGCAA | -0.17 |
| AATTCTAG | 0.0719 |
| ATTGGCTA | 0.00756 |
| CTTTATCC | -0.117 |
| GTAACGTA | 0.311 |

| Sequence | PBM E-score |
| --- | --- |
| GTGACCAA | -0.106 |
| CTCTGGCC | -0.362 |
| ATGATACG | 0.164 |
| AGAGTTGA | -0.0893 |
| CATTTCTA | 0.116 |
| AGATTTCG | 0.0148 |
| ACCGGCCG | -0.168 |
| TGTACCAA | 0.262 |
| GAACCCAC | -0.0128 |
| GACGGGAA | -0.0894 |
| GAAGTCCC | -0.353 |
| TCACAGCA | 0.0289 |
| GAATTAGC | -0.0766 |
| AACACACA | 0.391 |
| TGCGCAAA | -0.00936 |
| AGAAGTAC | 0.00966 |
| AAAGTAAT | 0.238 |
| GAGATCAC | -0.0612 |
| GCGGTACC | -0.216 |
| GTCGTGAA | 0.00154 |
| TGCCAGCA | -0.0451 |
| CAGACCAA | -0.136 |
| ACCTCCGC | -0.301 |
| CAAGGTTA | 0.128 |
| AATAATTG | -0.0941 |

| Sequence | PBM E-score |
| --- | --- |
| CAAGCACA | -0.0304 |
| CTTGTTCA | 0.249 |
| ATAACGAA | 0.124 |
| AAAGTATA | 0.114 |
| ACAGTGGG | -0.164 |
| CCGTACGG | -0.131 |
| AACGGCGG | -0.209 |
| CAACAGGG | 0.0131 |
| AGCGACCG | -0.201 |
| AGAATAAA | 0.0755 |
| ACAGAGTG | 0.122 |
| AGGGACAT | -0.0233 |
| GACGGCTA | -0.146 |
| GTGCCTAA | 0.0283 |
| AATGATAT | 0.0696 |
| TAAGAATA | 0.23 |
| ATGCGTCG | 0.0276 |
| CATGCCCG | 0.0552 |
| GCAAAATA | 0.106 |
| GCAATAGC | 0.0141 |
| GGTCGACC | -0.0813 |
| CTTCTTCA | -0.0104 |
| ATCAGTAA | 0.223 |
| CGCAATGA | 0.0708 |
| CATCATAA | 0.0908 |

| Sequence | PBM E-score |
| --- | --- |
| AACGGCCC | -0.296 |
| CCGTGGTA | 0.0442 |
| CTAATGAC | -0.046 |
| CCAGAAAA | 0.0245 |
| CAGTAAAA | 0.134 |
| ATCGTGAA | -0.136 |
| ACGGTATC | -0.0605 |
| CCGATAGA | -0.186 |
| CCTTTAGA | -0.0999 |
| CAACAACG | 0.239 |
| GAAGTCAC | -0.229 |
| ATTGTGCA | 0.0508 |
| CTCTCAAG | -0.211 |
| CTCCCCCC | -0.418 |
| TATTTACA | 0.463 |
| ATCGACTG | -0.247 |
| AGCTCTTC | -0.21 |
| CCTTGTAG | 0.195 |
| ATTCGGAG | 0.00943 |
| GGGCCCGA | -0.109 |
| CATAATGA | 0.0808 |
| CGATGGTC | -0.175 |
| CAGCAACA | 0.234 |
| ATCAATCG | 0.0955 |
| CCGGGCAC | -0.209 |

| Sequence | PBM E-score |
| --- | --- |
| AGGCACCC | -0.134 |
| AAGGCAGC | -0.148 |
| ACATATTG | 0.142 |
| CACCCGGG | -0.278 |
| CCAGAAAG | 0.0306 |
| AGGTGATA | -0.161 |
| AGCTTAGA | -0.0544 |
| CGTCAACA | 0.297 |
| CAAGAGTG | -0.0803 |
| AGCTTACT | 0.0336 |
| TACGAAGA | 0.0849 |
| CATATGCA | 0.1 |
| CCTGCTTC | -0.214 |
| GTGCAAAC | 0.157 |
| GGAAGGCC | -0.3 |
| ACCCAAAG | -0.129 |
| GTGTAGCA | 0.157 |
| CGGGAGCC | -0.33 |
| CCTGTCCG | -0.0633 |
| ATTCGTTG | 0.0986 |
| GATGGGAC | -0.282 |
| GATGTAAC | 0.215 |
| ATGGTCTG | -0.0122 |
| CATTCGAA | 0.0371 |
| GCTTAATA | -0.0703 |

| Sequence | PBM E-score |
| --- | --- |
| ATGCCGTC | -0.00421 |
| TCACTCAA | -0.0849 |
| AAACGGGC | -0.0907 |
| GCTTACCC | -0.233 |
| AAGTATGC | 0.0617 |
| ATATTTCG | 0.178 |
| CAACTCCG | -0.171 |
| AGCTAAGC | -0.142 |
| CTCTTGCC | -0.055 |
| AACGTAGA | 0.258 |
| ATCCGCAA | 0.00285 |
| AAAGCTCC | -0.153 |
| AACACTCC | 0.102 |
| CTCCGACC | -0.354 |
| ACCCGCTG | -0.0671 |
| CCCCGGCG | -0.285 |
| AACGGGTG | 0.0789 |
| GAATGAAA | -0.0312 |
| CTTATAAG | -0.279 |
| CGGTGTCA | -0.0723 |
| ACTAGATG | 0.0374 |
| CCTGCCAC | -0.232 |
